From the supplement of paper PMC11417369
± gives the standard deviation of the averaged measurements. The list shows a part of the results.

system: PfAP2-G AP2 domain (GST-tagged); experiment: gcPBM binding intensity (ln(normalized median fluorescence intensity)); higher = stronger DNA binding
Summary of the method: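 An Agilent 4 × 180k array of primer-extended double-stranded 36-bp intergenic genomic probes, with negative controls, was incubated for 1 h with GST-tagged P. falciparum DNA-binding domains expressed in E. coli. Alexa488 anti-GST antibody detected bound protein, scanned at 488 nm. Binding intensity is the highest Masliner-normalised natural-log median intensity across replicate spots of either probe orientation.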

Sequence	gcPBM binding intensity (ln)
AAATTTATAAATTAAAGTACATATTTCTTGAATATT [XGTACX_site859]	11 ± 0.67
GACTTCTCCATATACACACACCAACAAATATAAAAA [CACACA_site7331]	10.4 ± 0.5
CATAATATTAAATCAGTGCAAATATACAGAATAAAT [GTGCAC_site9786]	9.97 ± 0.13
ACATATACATACATATGTACATATACATAAATATAT [XGTACX_site1285]	11.2 ± 0.57
ATATTTATGTAATGTTTGATTTTTTTTTTATGTGTG [CACACA_negctrl_site1422]	9.745 ± 0.035
ATAATATGTTATTAAGTGCATATTAATTATTATTAT	9.89 ± 0.18
AATTTTTCTTTTTTTTGTACAGAATATATATTTTAT [XGTACX_site1419]	10.8 ± 0.3
TATATATATCTTTTGGTGCATATTTCGAATATATGT	10.1 ± 0.14
AAAAAAAAAATTGAAAGTACACAAATGGGGTATTAT [XGTACX_site3960]	11.5 ± 0.87
TACTGTTTAAAATATACACACATAATCAAAAAAAAA [CACACA_site2510]	10 ± 0.24
TATATATTTACATATTGTACAATATAAAAATAATTA [XGTACX_site19]	10.9 ± 0.49
TCGTTATCCATCTTCACACATATATATAGTAATATA [CACACA_site5492]	10.2 ± 0.16
AAATTCAAACAAATTACACACATTTTTTTTTAATTT [CACACA_site3596]	9.985 ± 0.021
AACCCCAAGCCGTACTGTACATATATTTTTATTTTA [XGTACX_site142]	11.3 ± 0.74
AAAAGTTGTATTTGCACACATAAAAAAAAGATATTA [CACACA_site3840]	10.2 ± 0.23
TCAAAGGAATTTTTATGTACATATAAACTTTATTCT [XGTACX_site3432]	11.2 ± 0.76
AAAAAAAAAAAAAAATGTACATATATATTTATATAT [XGTACX_site229]	11.1 ± 0.78
AGTATAAAATTTGGTTGTACATTTTTAAAAAAATTA [XGTACX_site7519]	11.1 ± 0.69
AAAATTAAATTATTTACACACAATATTAAAATATTT [CACACA_site3244]	9.76 ± 0.16
TAAAATCAATGTTCTTGTACTTAAAATGTTTGTTCT [XGTACX_site5490]	11 ± 0.57

Sequence	gcPBM binding intensity (ln)
ATATATCTATATAGAAATGTATATATATATATGTGT [TGCATGCA_negctrl_site349]	10.2 ± 0.15
TATTATTCTACTATTATATTCTATATTATTTATAGT [CACACA_negctrl_site499]	9.71 ± 0.17
ACAATATATTTTTGAGCATGCGCAAAAGAGAATGCA [TGCATGCA_site566]	9.91 ± 0.11
ATCCAAAAGAAAAATAGTACAGATATGAACAATATG [XGTACX_site6944]	11.3 ± 0.65
TATAATATAAAAAAAAGTACACGAATTTTTTTTCAG [XGTACX_site6105]	11.5 ± 0.96
AAATAAATTTGACCAGTGCAATAACTTTGTATACCT [GTGCAC_site9446]	10.5 ± 0.35
TACATTTTATGCATTTGTACACAAATAAATAAATAA [XGTACX_site2652]	11.2 ± 0.81
TTATGCAAAAATAAATCAATATGTTGATATGTAAAT [GTGCAC_negctrl_site128]	9.78 ± 0.19
AACATATACTGTTTATGTACACATTGTTATATTAAT [XGTACX_site4276]	11.4 ± 0.75
ATATAATTTAATTTCTGTACATAAGAGAAAAAACAA [XGTACX_site4865]	11.1 ± 0.64
CTCTTCCTTAATTTTTGTACTTAAAATTTTTTTTTT [XGTACX_site1628]	11.2 ± 0.73
AAAGAAAAAAAAAAAACACACAAAAAAAATCAAAAT [CACACA_site2871]	9.77 ± 0.057
TTTTTTTTTTTTTATACACACATTAAAATAAAAAAG [CACACA_site3946]	10.2 ± 0.41
ATATCAATTTTTGGTGGTACGTAGGAAGTTTCAGAA [XGTACX_site6881]	11.2 ± 0.74
ACTTTAAAAAGATTCACACAAAATATATAAAAATAT [CACACA_site5334]	9.875 ± 0.064
TACCTATAAAAGTACACACACACACGGATATAAATA [CACACA_site6569]	11.5 ± 1
ACTATAAATATATACACATGCGCACACACAAGTGGG [TGCATGCA_site432]	10.5 ± 0.17
ATTGATCTTTATTGTTGTACATTAAACGTTAATTTT [XGTACX_site1788]	11.2 ± 0.83
AACATTCTATGTTGCACACAAAGAGAAAAATTTATT [CACACA_site3995]	10.15 ± 0.035
TGAAGGAATACAGCTCGTACATGTGTAAAGAGATAA [XGTACX_site500]	10.8 ± 0.35

Sequence	gcPBM binding intensity (ln)
TAATTTAAATGATGTAGTACATATAAATATATCTAA [XGTACX_site262]	11.5 ± 0.76
AAAAAGAAAAAACTTACACACATATATACCCCCATG [CACACA_site4463]	11 ± 0.57
TATTATATAATTTTAACACACAAGAATATAAACTTT [CACACA_site1363]	9.915 ± 0.049
TAACAAAATGTAAATAAACACACATATATATATATA [CACACA_site8352]	9.89 ± 0.36
ATGGAAATTTTATCATGTACATATACCGTTGAATAA [XGTACX_site5420]	11.2 ± 0.67
AATAAAAAAATTAAAATTAAAAAATTAAAACTTAAA [CACACA_negctrl_site987]	9.3 ± 0.23
TGTGGCCCTGCGAGGTGGTCATCATGAATACGAAAA [XGTACX_site1526]	11.1 ± 0.79
TCAAAAATTTATATAGTGCAATATATATATAATGTA	9.695 ± 0.092
ACCATTTGTACTTACGCACACATAAAATATATATAT [CACACA_site1545]	11.5 ± 1
TACTATTTTTATAATACACACATATATTTGTGATAT [CACACA_site1775]	10.04 ± 0.099
TTAAAAAATATATGCGTGCACTAATATTTCATATGC	10.3 ± 0.28
TGAATTAACAAATAGACACACATATATATATATATA [CACACA_site3195]	10.1 ± 0.43
TCATACATTTTCCTTGCACACATTTATAATTAATGT [CACACA_site614]	10.5 ± 0.17
ATATGTGAATAAAAATGTACGTGTTCTTTTTTTTTT [XGTACX_site320]	11.2 ± 0.61
AACAAAAAAACAAACACACACACACCCATATATATA [CACACA_site3652]	9.97 ± 0.16
TTGTAATATATAAAAGTGCATATATGGTTCCATATA [GTGCAC_site9544]	10.3 ± 0.3
TAATTTATTGTACGTGCATGCTATTTTTTATTTTTA [TGCATGCA_site1059]	11.5 ± 0.77
GTTATAGAAGCATTCACACACACACCGACATACACA [CACACA_site4914]	10.3 ± 0.43
